Results reported in the antibiotic and cytotoxicity screens of Wong et al. (2023).
The other results are listed elsewhere or left out.

Assays:
HSkMC = human skeletal muscle cells; experiment: cytotoxicity call (relative viability < 0.9); settings: 10 µM
HepG2 = experiment: cytotoxicity call (relative viability < 0.9); settings: 10 µM
S. aureus RN4220 = experiment: growth inhibition call (relative growth <= 0.2); settings: 50 µM

| Compound | cytotoxicity call (HSkMC) | cytotoxicity call (HepG2) | growth inhibition call (S. aureus RN4220) |
| --- | --- | --- | --- |
| O=c1cccc2n1C[C@@H]1C[C@H]2CN(C[C@H](O)/C=N/n2cnnc2)C1 | inactive | inactive | inactive |
| Cc1ccc2cc3c(ccc4ccccc43)c3c2c1CC3 | inactive | active | inactive |
| CNC(=O)Oc1ccc2c(c1)C1(C)CCN(C)C1N2C (centres undefined) | inactive | active | inactive |
| C[C@]12C(=O)OC(=O)[C@]1(C)[C@H]1CC[C@H]2O1 | active | active | inactive |
| NCc1[nH]nc2cc(F)ccc12 | inactive | inactive | inactive |
| CC1OC(OC2CC(O)C3(CO)C4C(O)CC5(C)C(C6=CC(=O)OC6)CCC5(O)C4CCC3(O)C2)C(O)C(O)C1O.O.O.O.O.O.O.O.O (centres undefined) | active | active | inactive |
| CC(C)c1csc(CCN)n1 | inactive | inactive | inactive |
| Cc1nccc2c1[nH]c1cc(O)ccc12 | inactive | inactive | inactive |
| CNc1ccccc1C(=O)O | inactive | inactive | inactive |
| CC(=O)OC1C(=O)C2(C)C(O)CC3OCC3(OC(C)=O)C2C(OC(=O)c2ccccc2)C2(O)CC(O)C(C)=C1C2(C)C (centres undefined) | inactive | active | inactive |
| C[C@H]1CN(C)[C@@H](C)C[C@@H]1n1[nH]c(=O)cc1N | inactive | inactive | inactive |
| N[C@H]1CCCN(Cc2cccnc2)C1 | inactive | inactive | inactive |
| O=C1C[C@H](c2ccccc2)[C@@H]2CNCCN12 | inactive | inactive | inactive |
